Measured values taken from patent US20170368082A1, “FORMULATIONS OF BRINCIDOFOVIR” (priority 2016, published 2017).
Several values for one entry are separate records, joined by “and”; a condition that tells them apart may be missing. Identical values can stand only once. This continues a long series; more values of the same kind are listed elsewhere.

Assay: Phase 2 toxicokinetics of brincidofovir and cidofovir in plasma
Assay type: in vivo, Sprague-Dawley CD rats
Conditions: brincidofovir 15 mg/kg 2-h IV infusion, BLQ imputed as zero
Protocol: Plasma samples (108) were collected 2 hours following the initiation of dosing on Day 1 and Day 7 (Group 1), or at 1, 2, 8, and 24 hours following the initiation of dosing on Day 1, and prior to administration and at 2, 8, and 24 hours following the initiation of dosing on Day 7 (Groups 2 and 3), and analyzed to determine the concentrations of brincidofovir and the metabolite, cidofovir), by LC/MS/MS.
Approximately 0.4 mL of whole blood was obtained via the tail vein from each animal at each time point. Animals were not fasted prior to blood collection. Blood was collected into tubes containing K2EDTA anticoagulant and placed on wet ice in an upright position, per facility SOP prior to processing. Plasma was separated by centrifugation (10 minutes at approximately 2000 g, at approximately 2-8° C.). Approximately 0.10 mL of plasma was transferred into a single cryotube appropriately labeled with study number, animal number, time point, date of sampling and sample type. Remaining plasma was transferred into a second cryotube and retained as a backup sample. Plasma frozen at approximately −80±10° C. within approximately 2 hours after collection of each blood sample until analysis. Animals were euthanized (CO2 inhalation) after the final blood collection.
In general, TK parameters were estimated using mean plasma concentrations of brincidofovir and cidofovir derived from the composite blood sampling design using Phoenix WinNonLin (V 6.3).
A composite blood sampling design was used such that each rat was sampled twice per sampling day. Blood was collected via tail vein from unanesthetized animals into tubes containing anticoagulant and placed on wet ice in an upright position. Animals were not fasted prior to blood collection. Plasma was separated by centrifugation (for 10 minutes at approximately 2000 g, at approximately 2-8° C.), and transferred into individually labeled cryotubes. All cryotubes containing the collected plasma samples were appropriately labeled as to study number, animal number, time point, date of sampling and sample type. All plasma samples were obtained and frozen at approximately −80° C. (±10° C.) within approximately 2 hours after collection of each blood sample until analysis.
Rat plasma bioanalysis was conducted by Pyxant Laboratories. Plasma samples were analyzed for concentrations of brincidofovir and cidofovir using a method based upon protein precipitation extraction followed by LC-MS/MS analysis; calibration ranges for brincidofovir and cidofovir were 1.00-1500 ng/mL and 5.00-750 ng/mL, respectively, (Pyxant study number 3025) for a 50 μL aliquot of rat plasma. Sample analysis for ISR was not performed as part of this non-GLP study.
For the generation of Mean Profiles, all sample concentrations that were below the limit of quantitation (BLQ) were set to 0.
All pharmacokinetic parameter estimates were completed using a Non-Compartmental Model (Model 200-202 for IV infusion administration). The AUClast and AUCinf were calculated using the linear up log down trapezoidal rule.

## Nc1ccn(C[C@@H](CO)OCP(=O)(O)O)c(=O)n1 [Cidofovir]
Female rats, Day 7, 8 h
  Imputed Concentration, Mean: 43.6
  Imputed Concentration, individual animals: 40.2
Female rats, Day 7, 24 h
  Imputed Concentration, Mean: 20.3
  Imputed Concentration, individual animals: 30.0 and 7.10 and 23.8
Male rats, Day 7, 8 h
  Imputed Concentration, Mean: 32.8
Male rats, Day 7, 24 h
  Imputed Concentration, Mean: 21.7
  Imputed Concentration, individual animals: 27.2 and 17.9 and 19.9
